PMC3366979
Numbering of substitutions follows the chain as printed. Names may count otherwise. No constants are given. Whether binding was seen depends on the method and setting. Binding seen in cells or lysates may run through a third protein. Some binding calls cover weakened binding; strength is not graded here. Sequences can lack the tags named with a protein.

Amino acid sequences for entries named in this document (tags omitted). A change or cut given only in a name is not applied to a line headed by its entry. Chains listed by the source or under a name are the forms on record and can include a tag or linker.
UniProt P62136: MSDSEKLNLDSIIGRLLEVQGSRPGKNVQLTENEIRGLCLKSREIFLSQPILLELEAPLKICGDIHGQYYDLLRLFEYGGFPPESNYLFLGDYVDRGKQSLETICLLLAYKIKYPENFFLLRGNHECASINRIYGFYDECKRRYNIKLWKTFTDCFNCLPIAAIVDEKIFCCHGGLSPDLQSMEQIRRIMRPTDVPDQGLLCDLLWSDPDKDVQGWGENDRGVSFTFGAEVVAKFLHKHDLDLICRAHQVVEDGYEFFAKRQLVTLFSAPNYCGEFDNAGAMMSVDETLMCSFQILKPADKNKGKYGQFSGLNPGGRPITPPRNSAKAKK
IL2-0 (IL2 construct lacking PC1 sequence) (P01589, form named): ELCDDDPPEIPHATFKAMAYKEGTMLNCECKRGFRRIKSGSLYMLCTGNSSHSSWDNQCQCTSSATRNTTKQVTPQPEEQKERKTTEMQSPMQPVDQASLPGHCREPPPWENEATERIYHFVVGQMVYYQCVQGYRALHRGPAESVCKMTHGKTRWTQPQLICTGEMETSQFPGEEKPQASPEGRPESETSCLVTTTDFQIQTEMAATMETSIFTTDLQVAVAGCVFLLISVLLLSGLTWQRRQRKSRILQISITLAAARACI

T1: sIg-HT193 (C-terminal, cytosolic 193 amino acids of PC1 fused to the membrane targeting cassette sIg.7) (mouse) (UniProt O08852)
T1 sequence: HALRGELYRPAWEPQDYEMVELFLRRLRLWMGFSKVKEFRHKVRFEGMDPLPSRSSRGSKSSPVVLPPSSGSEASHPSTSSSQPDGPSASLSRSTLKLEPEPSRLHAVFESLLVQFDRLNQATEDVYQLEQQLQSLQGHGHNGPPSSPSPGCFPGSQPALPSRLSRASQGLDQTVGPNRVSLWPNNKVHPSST

B1: IL2-AT120 (membrane distal 120 amino acids of the C-terminal tail of PC1 fused to the IL2 receptor portion) (domain or fragment, UniProt O08852 4174-4293)
chain: ASHPSTSSSQPDGPSASLSRSTLKLEPEPSRLHAVFESLLVQFDRLNQATEDVYQLEQQLQSLQGHGHNGPPSSPSPGCFPGSQPALPSRLSRASQGLDQTVGPNRVSLWPNNKVHPSST
B2: IL2-HT193 (C-terminal, cytosolic 193 amino acids of mouse polycystin-1 fused to the extracellular and transmembrane portion of the IL2 receptor) (domain or fragment, UniProt O08852 4101-4293)
chain: T1 sequence
B3: IL2-HT193 V4143A (domain or fragment, UniProt O08852 4101-4293)
chain: T1 sequence with V43A
B4: IL2-HT193 F4145A (domain or fragment, UniProt O08852 4101-4293)
chain: T1 sequence with F45A
B5: IL2-HA74 (membrane proximal 74 amino acids of the C-terminal tail of PC1 fused to the IL2 receptor portion) (domain or fragment, UniProt O08852 4101-4174)
chain: HALRGELYRPAWEPQDYEMVELFLRRLRLWMGFSKVKEFRHKVRFEGMDPLPSRSSRGSKSSPVVLPPSSGSEA

molecular target: T1, sIg-HT193 (C-terminal, cytosolic 193 amino acids of PC1 fused to the membrane targeting cassette sIg.7) (mouse); assay: co-IP; 293T cells co-transfected with HA-PP1α and sIg constructs; lysates precipitated with protein A/G+ agarose to pull down the sIg constructs; blot with anti-HA

binding	Molecule
binds	HA epitope-tagged protein phosphatase-1α (from UniProt P62136 1-330) (enzyme)

molecular target: HA epitope-tagged protein phosphatase-1α (UniProt P62136); assay: co-IP; 293T cells co-transfected with HA-PP1α and IL2 fusion proteins; lysates (150 mM NaCl, 1% Triton X-100, 0.5% NP40) precipitated with agarose-conjugated anti-HA (F-7), 2 h, 4°C; washed six times with 300 mM NaCl; blot with anti-IL2 antibodies

binding	Molecule
no binding	IL2-0 (IL2 construct lacking PC1 sequence) (from UniProt P01589 22-269)
binds	B1
binds	B2
binds	B3
binds	B4
binds weakly	B5
